The list shows a part of the results.

Experiment [1] concerns HSkMC (human skeletal muscle cells). As to the kind of experiment: cytotoxicity call (relative viability < 0.9). The conditions noted are these: 10 µM.
Experiment [2] relates to HepG2. Put plainly: cytotoxicity call (relative viability < 0.9). The conditions noted are these: 10 µM.
Experiment [3] relates to S. aureus RN4220. Put plainly: growth inhibition call (relative growth <= 0.2). The note with it: 50 µM.

Turning to `C[C@H]1CN([C@@H](C)CO)C(=O)c2cccc(NS(C)(=O)=O)c2O[C@@H]1CN(C)S(=O)(=O)c1ccccc1`, the cytotoxicity call in experiment [1] and in experiment [2] was “inactive” in each case. The growth inhibition call in experiment [3] is “inactive”.
In the case of `Cc1ccc(S(=O)(=O)N(C)C[C@H]2Oc3c(NS(C)(=O)=O)cccc3C(=O)N([C@@H](C)CO)C[C@@H]2C)cc1`, the cytotoxicity call in experiment [1] and in experiment [2] was “inactive” throughout. In experiment [3], the growth inhibition call was “inactive”.
Consider `CCN(CC)CCNC(=O)c1ccc(NC(C)=O)cc1.Cl`, for which the cytotoxicity call in experiment [1] and in experiment [2] was “inactive” throughout. Moreover, the growth inhibition call in experiment [3] was “inactive”.
Consider `CCC(=O)N1Cc2cc(C(=O)Nc3nccs3)nc(-c3cccc(-c4ccccc4OC)c3)c2[C@H]1CCO`, for which, in experiment [1], the cytotoxicity call is “active”. In experiment [2], the cytotoxicity call is “inactive”. For the same compound, the growth inhibition call in experiment [3] is “inactive”.
For the compound `CN1CCN(C(=O)C[C@@H]2CC[C@H]3[C@H](COc4ccc(NC(=O)c5cccs5)cc4C(=O)N3C)O2)CC1`, the cytotoxicity call in experiment [1] and in experiment [2] was “inactive” throughout. For the same compound, the growth inhibition call in experiment [3] is “inactive”.
In the case of `c1ccc2c(c1)Cc1cccnc1-2`, the cytotoxicity call in experiment [1] and in experiment [2] was “inactive” each time. Further, in experiment [3], the growth inhibition call was “inactive”.
Regarding `C[C@H](CO)N1C[C@H](C)[C@H](CN(C)C(=O)NC2CCCCC2)OCCCC[C@H](C)Oc2ccc(NC(=O)Nc3ccc(C(F)(F)F)cc3)cc2C1=O`, in experiment [1], the cytotoxicity call was “inactive”. Besides, the cytotoxicity call in experiment [2] is “active”. Besides, the growth inhibition call in experiment [3] was “inactive”.
On to `C[C@H]1CCCCO[C@H](CN(C)S(=O)(=O)c2cccs2)[C@@H](C)CN([C@@H](C)CO)C(=O)c2cc(NC(=O)NC3CCCCC3)ccc2O1`, for which the cytotoxicity call in experiment [1] and in experiment [2] was “inactive” each time. Further, the growth inhibition call in experiment [3] is “inactive”.
Turning to `Cc1noc(C)c1S(=O)(=O)N(C)C[C@H]1Oc2ccc(NC(=O)NC(C)C)cc2CC(=O)N([C@H](C)CO)C[C@@H]1C`, the cytotoxicity call in experiment [1] and in experiment [2] was “inactive” throughout. Besides, the growth inhibition call in experiment [3] was “inactive”.
Take `O=C(C[C@H]1CC[C@@H]2[C@H](COC[C@@H](O)CN2C(=O)Nc2ccc(C(F)(F)F)cc2)O1)NCc1ccncn1`: the cytotoxicity call in experiment [1] and in experiment [2] was “inactive” in each case. The growth inhibition call in experiment [3] was “inactive”.
In the case of `CN(C)CC(=O)N[C@H]1CC[C@H](CC(=O)O)O[C@H]1CO`, the cytotoxicity call in experiment [1] and in experiment [2] was “inactive” in each case. The growth inhibition call in experiment [3] is “inactive”.
Take `COc1cccc(S(=O)(=O)Nc2ccc3c(c2)[C@H]2C[C@@H](CC(=O)NCc4cccc(F)c4)O[C@@H](CO)[C@H]2O3)c1`: the cytotoxicity call in experiment [1] and in experiment [2] was “inactive” each time. Moreover, the growth inhibition call in experiment [3] was “inactive”.
With `C[C@H]1CN([C@@H](C)CO)C(=O)CCCn2nncc2CO[C@@H]1CN(C)Cc1cccc2c1OCCCO2`, the cytotoxicity call in experiment [1] and in experiment [2] was “inactive” throughout. In addition, in experiment [3], the growth inhibition call was “inactive”.
Take `C[C@@H]1CN([C@H](C)CO)C(=O)Cc2cc(NC(=O)Nc3cccc4ccccc34)ccc2O[C@@H]1CN(C)C(=O)Nc1ccc(C(F)(F)F)cc1`: the cytotoxicity call in experiment [1] and in experiment [2] was “inactive” throughout. Also, the growth inhibition call in experiment [3] is “inactive”.
Consider `C[C@@H]1CCCCO[C@H](CN(C)C(=O)c2ccncc2)[C@@H](C)CN([C@H](C)CO)C(=O)c2cc(NC(=O)C3CCCCC3)ccc2O1`, for which the cytotoxicity call in experiment [1] and in experiment [2] was “inactive” in each case. Besides, the growth inhibition call in experiment [3] is “inactive”.
For `C[C@@H]1CN([C@@H](C)CO)C(=O)c2cccc(NC(=O)c3ccc(-c4nccs4)cc3)c2O[C@@H]1CN(C)C(=O)Nc1cccc2ccccc12`, the cytotoxicity call in experiment [1] and in experiment [2] was “inactive” in each case. Further, the growth inhibition call in experiment [3] was “inactive”.

Values taken from the antibiotic and cytotoxicity screens of Wong et al. (2023).
